Experimental data from publication PMC6429309 (Molecules, 2019).

Legend:
[1] = test system: tobacco mosaic virus (TMV); experiment: whole plant or invertebrate; assay type: in vivo; settings: for Protective Activity against TMV: in vivo; for EC50 / pest or weed control at 500 µg/mL: Tobacco mosaic virus; for EC50: read-out: Protective EC50 against TMV; for pest or weed control at 500 µg/mL: topical, read-out: Protective Activity against TMV
[2] = test system: tobacco mosaic virus (TMV); experiment: whole plant or invertebrate; assay type: in vivo; settings: for Curative Activity against TMV: in vivo; for EC50 / pest or weed control at 500 µg/mL: Tobacco mosaic virus; for EC50: read-out: Curative EC50 against TMV; for pest or weed control at 500 µg/mL: topical, read-out: Curative Activity against TMV
[3] = target: TMV coat protein (TMV CP) (Tobacco mosaic virus, UniProt P69687); experiment: biochemical
Sequence of UniProt P69687 (P69687 whole entry): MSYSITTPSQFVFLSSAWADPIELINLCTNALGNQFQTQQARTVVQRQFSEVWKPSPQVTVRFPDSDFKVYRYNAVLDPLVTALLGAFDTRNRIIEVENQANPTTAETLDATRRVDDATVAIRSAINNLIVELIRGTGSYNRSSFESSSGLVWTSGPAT

[4] = 500 μg/mL, Nicotiana tabacum L. leaves, average of three replicates

SMILES	Protective Activity against TMV [1, 4]	Curative Activity against TMV [2, 4]	also measured
COP(=O)(OC)Oc1ccccc1/C=C/C(=O)/C=C/c1ccc(Cl)cc1 [3a, 2-((1E,4E)-5-(4-chlorophenyl)-3-oxopenta-1,4-dien-1-yl)phenyl dimethyl phosphate]	42.5 ± 1.6%	61.2% and 61.2 ± 8.5%	EC50 [2]: 270 µg/mL
CCOP(=O)(OCC)Oc1ccccc1/C=C/C(=O)/C=C/c1ccc(Cl)cc1 [3b]	48.6 ± 1.8%	49.6 ± 2.2%	–
COc1ccc(/C=C/C(=O)/C=C/c2ccccc2OP(=O)(OC)OC)cc1 [3c]	42.8 ± 8.5%	62.2% and 62.2 ± 8.5%	EC50 [2]: 335 µg/mL (≈ 864 µM)
CCOP(=O)(OCC)Oc1ccccc1/C=C/C(=O)/C=C/c1ccc(OC)cc1 [3d]	39.1 ± 7.0%	35.4 ± 1.7%	–
COP(=O)(OC)Oc1ccccc1/C=C/C(=O)/C=C/c1ccccc1Cl [3e]	51.9 ± 6.4%	52.3 ± 3.7%	–
CCOP(=O)(OCC)Oc1ccccc1/C=C/C(=O)/C=C/c1ccccc1Cl [3f]	53.7 ± 8.6%	28.3 ± 3.6%	–
CCOP(=O)(OCC)Oc1ccccc1/C=C/C(=O)/C=C/c1cccc([N+](=O)[O-])c1 [3h]	66.7 ± 2.1%	–	EC50 [1]: 104 µg/mL (≈ 242 µM); pest or weed control at 500 µg/mL [1]: 66.7%; Kd [3]: 28 nM; pest or weed control at 500 µg/mL [2]: 51.9 ± 2.2%
COP(=O)(OC)Oc1ccccc1/C=C/C(=O)/C=C/c1ccc([N+](=O)[O-])cc1 [3i]	53.6 ± 9.3%	50.9 ± 2.0%	–
CCOP(=O)(OCC)Oc1ccccc1/C=C/C(=O)/C=C/c1ccc([N+](=O)[O-])cc1 [3j]	63.8 ± 6.5%	–	EC50 [1]: 290 µg/mL (≈ 672 µM); pest or weed control at 500 µg/mL [1]: 63.8%; Kd [3]: 230 nM; pest or weed control at 500 µg/mL [2]: 20 ± 2.3%
CCOP(=O)(OCC)Oc1ccccc1/C=C/C(=O)/C=C/c1ccc(C)cc1 [3k]	56.7 ± 7.3%	55.8 ± 3.2%	–
COP(=O)(OC)Oc1ccccc1/C=C/C(=O)/C=C/c1ccccc1 [3l]	45.1 ± 7.3%	69.3% and 69.3 ± 8.1%	EC50 [2]: 239 µg/mL (≈ 666 µM)
CCOP(=O)(OCC)Oc1ccccc1/C=C/C(=O)/C=C/c1ccccc1 [3m]	56.7 ± 6.4%	48.1 ± 9.1%	–
COP(=O)(OC)Oc1ccccc1/C=C/C(=O)/C=C/c1ccc(Br)cc1 [3n]	56.3 ± 7.8%	44.1 ± 5.5%	–
CCOP(=O)(OCC)Oc1ccccc1/C=C/C(=O)/C=C/c1ccc(Br)cc1 [3o]	49.6 ± 7.4%	52.1 ± 8.9%	–
COP(=O)(OC)Oc1ccccc1/C=C/C(=O)/C=C/c1cccc(C(F)(F)F)c1 [3p]	58.8% and 58.8 ± 2.4%	34.3 ± 9.1%	–
CCOP(=O)(OCC)Oc1ccccc1/C=C/C(=O)/C=C/c1cccc(C(F)(F)F)c1 [3q]	55.8 ± 9.3%	51.7 ± 3.9%	–
COP(=O)(OC)Oc1ccccc1/C=C/C(=O)/C=C/c1cccc(C)c1 [3r]	55.7 ± 9.5%	50.7 ± 2.1%	–
CCOP(=O)(OCC)Oc1ccccc1/C=C/C(=O)/C=C/c1cccc(C)c1 [3s]	55.4 ± 5.5%	63.4% and 63.4 ± 1.7%	EC50 [2]: 250 µg/mL (≈ 624 µM)
CNCC(=O)N[C@@H](CO)C(=O)N[C@H]1[C@H](O)[C@@H](O)[C@H](n2ccc(N)nc2=O)O[C@@H]1C(N)=O [Ningnanmycin, ningnanmycin, reference compound]	–	–	pest or weed control at 500 µg/mL [1]: 56.2%; Protective Activity against TMV [1]: 56.2 ± 6.4%; Kd [3]: 520 nM; EC50 [2]: 386 µg/mL (≈ 871 µM); pest or weed control at 500 µg/mL [2]: 56.1%; Curative Activity against TMV [2]: 56.1 ± 2.5%

≈ marks a conversion by molar mass, not a printed value. Where “and” joins values, the source holds several entries; their conditions need not be identical. Equal entries are not always repeated. Where two headings read alike, the source gives them in different places.
